Here are results for 32 compounds from ChEMBL document CHEMBL1201862, “PubChem BioAssay data set” (2004).

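Exposure lasted 48 hours, with cells grown in 96-well plates and compounds tested at five concentrations. At the GI50, growth is halved.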 The source made the active and inactive calls. No stated cut-off is given here; in the data, active = GI50 up to about 1.1 µM and inactive = higher.

For the assay, the system named is NCI-H322M. The assay can be described thus: growth of human tumour cells (NCI), 48 h.
On to `CC1=C(N2CC2)C(=O)C(CO)=C(N2CC2)C1=O`, for which the GI50 is active: 0.13 µM.
For `O=C1CCCC[C@H]1C(O)CC1CC(=O)N(c2ccccc2)C(=O)C1` (some centres not stated), the GI50 is inactive: > 100 µM.
Next, `COc1ccc(C(=O)/C=C/c2ccc(O)c(O)c2F)c(OC)c1`: inactive: 7.5 µM.
For the compound `Cc1ccc(-c2cn3c(nc4ccccc43)c(/C=C/c3ccco3)n2)cc1`, the GI50 is inactive: > 100 µM.
In the case of `C=C1C(=O)OC2(C)CCC1CC1OC1(C)CCC=C(C)CCC2O` (configuration not stated), the GI50 was inactive: > 100 µM.
In the case of `Cc1ccccc1NC(=O)c1c(C)oc2c1C(=O)c1ccccc1C2=O`, the GI50 was inactive: 70.5 µM.
For the compound `Cc1nc2sccn2c1C(=O)NNC(N)=S`, the GI50 is inactive: > 100 µM.
For `COC(=O)C1=NC(=S)NC(c2ccccc2)C1c1nc2ccccc2s1` (configuration not stated), the GI50 was inactive: > 100 µM.
Next, `CC(=O)OCCn1c(Cc2ccc(Cl)cc2)nn(C(C)=O)c1=O`: inactive: > 100 µM.
In the case of `ClC1=C(Cc2ccccc2)Cc2ccc3c(c21)CCC3` it was inactive: 78.5 µM; in that of `CC1=NN(c2ccccc2Cl)C2(C1)C(Cl)C(=O)N2c1nc2ccccc2s1` (configuration not stated), inactive: > 100 µM.
Next, `Cc1ccc(NC(=O)SCCC(=O)O)cc1`: inactive: > 100 µM; `C/C(=N\NC(N)=S)c1ccc(C2CCCCC2)cc1`: inactive: 25.6 µM.
With `CN1c2ccccc2N(C)C23N(C)c4ccccc4N(C)C12N(C)c1ccccc1N3C` (configuration not stated), the GI50 was inactive: > 100 µM.
In the case of `Nc1ccc2ncc(Nc3ccc(Cl)c(Cl)c3)nc2c1` it was inactive: 27 µM; in that of `CCCc1c(O)nc(Nc2nc3ccccc3[nH]2)[nH]c1=O`, inactive: > 100 µM.
In the case of `[N-]=[N+]=Nc1c([N+](=O)[O-])c(Cl)nc2ccccc12` it was inactive: 8.93 µM; in that of `O=c1cc(N2CCOCC2)n2c(ccc3ccccc32)n1`, inactive: > 100 µM.
Next, `COC(=O)C1=C(O)c2ccc(Cl)cc2S(=O)(=O)N1C`: inactive: > 100 µM; `C=C1CCCC2OC(OC)CCC12` (configuration not stated): inactive: > 100 µM.
Take `N#Cc1c(NC(=S)Nc2ccc(Cl)cc2)sc2c1CCN(N1CCc3c(sc(NC(=S)Nc4ccc(Cl)cc4)c3C#N)C1)C2`: the GI50 was inactive: 17.3 µM.
Regarding `CN(C)/N=C(/c1nc2ccc(Cl)cc2nc1O)C(O)c1ccc(C(O)/C(=N\N(C)C)c2nc3ccc(Cl)cc3nc2O)cc1` (configuration not stated), the GI50 is inactive: > 100 µM.
Next, `COc1cc2c(cc1OC)C1Cc3ccccc3CCN1CC2` (configuration not stated): inactive: > 100 µM; `C[C@H](N[C@H]1CCC[C@]1(O)C#Cc1ccc2c(c1)OCO2)c1ccccc1`: inactive: > 25 µM; `Cc1ccc2nc(NC(=O)/C(Cc3nc4ccc(Cl)cc4nc3O)=N\NC(C)(C)C)sc2c1`: inactive: > 100 µM.
Consider `CCC1CC(C)=CCN1S(=O)(=O)c1ccc(C)cc1` (configuration not stated), for which the GI50 was inactive: 18.7 µM.
On to `CC1=C/C(=N\NS(=O)(=O)c2ccc([N+](=O)[O-])cc2)CC(C)(C)C1`, for which the GI50 is inactive: > 100 µM.
Take `COc1ccc(-c2c(C#N)c(S)n(NS(=O)(=O)c3ccccc3)c(=O)c2C#N)cc1`: the GI50 is inactive: > 100 µM.
Regarding `NC(=O)Nc1ccc(C(=O)NCCCNC(=O)c2ccc(NC(N)=O)cc2)cc1`, the GI50 was inactive: > 100 µM.
Turning to `Nc1ncn([C@@H]2C=C(CO)C(O)C2O)c(=O)n1` (some centres not stated), the GI50 is inactive: > 100 µM.
In the case of `COc1cc(CCc2ccc(OC(C)=O)cc2)cc(OC)c1OC` it was inactive: > 100 µM; in that of `O=C1/C(=C/c2ccc(O)cc2)CC/C1=C\c1ccc(O)cc1`, inactive: > 100 µM.
